{"source": "paper PMC6919601", "about": "“Identification of Plasmodium dipeptidyl aminopeptidase allosteric inhibitors by high throughput screening” (PLoS ONE, 2019)", "note": "Out of some 110,000 compounds screened, about 230 (0.21%) showed an effect of 50% or more. The list shows a part of the results.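 Note: 30 min substrate incubation versus DMSO and 10 µM JCP410 controls.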"}
{"molecular_target": "DPAP1 (Plasmodium falciparum, UniProt Q8IIJ9)", "sequence (Q8IIJ9 whole entry, looked up)": "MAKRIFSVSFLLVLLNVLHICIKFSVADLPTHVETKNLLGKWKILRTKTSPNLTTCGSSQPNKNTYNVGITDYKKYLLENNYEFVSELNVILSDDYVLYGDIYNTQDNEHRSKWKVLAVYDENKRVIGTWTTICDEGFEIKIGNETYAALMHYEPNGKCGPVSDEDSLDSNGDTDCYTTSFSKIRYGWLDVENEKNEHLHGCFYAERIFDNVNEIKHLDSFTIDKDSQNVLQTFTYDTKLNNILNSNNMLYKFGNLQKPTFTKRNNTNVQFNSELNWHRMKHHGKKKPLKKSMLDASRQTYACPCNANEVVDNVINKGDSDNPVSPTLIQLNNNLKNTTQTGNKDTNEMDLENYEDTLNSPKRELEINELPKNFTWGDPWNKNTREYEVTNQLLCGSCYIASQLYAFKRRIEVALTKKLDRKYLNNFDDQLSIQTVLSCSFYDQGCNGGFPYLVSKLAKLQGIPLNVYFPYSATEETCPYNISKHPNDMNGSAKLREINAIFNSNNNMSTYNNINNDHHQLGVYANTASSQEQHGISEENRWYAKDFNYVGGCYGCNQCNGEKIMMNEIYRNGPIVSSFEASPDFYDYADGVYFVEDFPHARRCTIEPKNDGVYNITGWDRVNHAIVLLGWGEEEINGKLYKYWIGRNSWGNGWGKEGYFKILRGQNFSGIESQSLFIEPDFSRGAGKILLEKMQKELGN", "experiment": "primary screen, percent inhibition; read by cleavage of a fluorogenic dipeptide substrate; higher = more effect of the substance", "design": "species or system P. falciparum D10 trophozoite lysates; single well", "units": {"% Inhibition @ 10 uM": "%"}}
{"smiles": "CCCC1(CCC)C(=O)N=C(Nc2ccccc2)NC1=O", "% Inhibition @ 10 uM": 19.8}
{"smiles": "CC(C)n1ncc2c(O)nc(Cc3ccccc3)nc21", "% Inhibition @ 10 uM": 5.61}
{"smiles": "CCOc1ccccc1/C=C1\\N=C(c2ccccc2F)OC1=O", "% Inhibition @ 10 uM": -3.71}
{"smiles": "CCOc1cccc2sc(NC(=O)c3ccc(C(C)(C)C)cc3)nc12", "% Inhibition @ 10 uM": 2.79}
{"smiles": "COc1ccc(CCNC(=O)C2CCCCC2)cc1OC", "% Inhibition @ 10 uM": 3.53}
{"smiles": "CCCCOc1cccc(NC(=O)c2ccccc2OC)c1", "% Inhibition @ 10 uM": -0.771}
{"smiles": "CSC1=NSC2=NC(=O)/C(=C\\c3cccnc3)C(=N)N12", "% Inhibition @ 10 uM": 2.59}
{"smiles": "CN1C(=O)NC(=O)/C(=C/c2ccc(C(=O)O)cc2)C1=O", "% Inhibition @ 10 uM": -6.04}
{"smiles": "COc1ccc(C(=O)Nc2ccc(C#N)cc2)cc1Br", "% Inhibition @ 10 uM": -5.3}
{"smiles": "O=C1OC(c2ccc(Cl)cc2Cl)=N/C1=C\\c1ccc2c(c1)OCO2", "% Inhibition @ 10 uM": -2.6}
{"smiles": "Cc1cc(C)c2c(n1)SCC(=O)N2CC(=O)NCCN1CCOCC1", "% Inhibition @ 10 uM": -0.637}
{"smiles": "COc1cc(NC(=O)NC2(C(F)(F)F)Oc3ccc(Cl)cc3O2)ncn1", "note": "(stereo not drawn)", "% Inhibition @ 10 uM": 1.62}
{"smiles": "COc1ccc(S(=O)(=O)Nc2cc(Cl)ccc2Cl)cc1", "% Inhibition @ 10 uM": -1.62}
{"smiles": "CCOC(=O)c1sc(N2C(=O)c3oc4ccccc4c(=O)c3C2c2cccs2)nc1C", "note": "(stereo not drawn)", "% Inhibition @ 10 uM": 11}
{"smiles": "O=C(O)/C(=C\\c1ccc2c(c1)OCO2)NC(=O)c1ccc(Br)o1", "% Inhibition @ 10 uM": -2.87}
{"smiles": "CCN1CCN(C(=O)C2c3ccccc3C(=O)N3CCc4cc(OC)c(OC)cc4C23)CC1", "note": "(stereo not drawn)", "% Inhibition @ 10 uM": 7.35}
{"smiles": "CCC1(CC)Cc2ccccc2C2=C(C(=O)N3CCCCCC3)C(=O)C(=O)N21", "% Inhibition @ 10 uM": -3.34}
{"smiles": "Clc1ccc(CCNc2nc3ccc(Cl)cc3n3cnnc23)cc1", "% Inhibition @ 10 uM": 2.42}
{"smiles": "Cc1ccc(C)c(S(=O)(=O)NCc2ccc(C(=O)N3CC(C)CC(C)C3)cc2)c1", "note": "(stereo not drawn)", "% Inhibition @ 10 uM": 3.49}
{"smiles": "Cc1ccc2[nH]c(NCc3ccccc3)nc2c1", "% Inhibition @ 10 uM": -1.11}
{"smiles": "CC(C)c1ccc(/C=C/C(=O)Nc2ccc(S(N)(=O)=O)cc2)cc1", "% Inhibition @ 10 uM": -0.969}
{"smiles": "CN(Cc1ccccc1)C(=O)c1ccc(Br)o1", "% Inhibition @ 10 uM": -2.03}
{"smiles": "COc1ccc(N2CCN(Cc3ccc(C(F)(F)F)cc3)CC2)cc1", "% Inhibition @ 10 uM": -2.03}
{"smiles": "CC(C)C[C@H](NC(=O)OCc1ccccc1)C(=O)N[C@H]1CCN(C#N)C1", "% Inhibition @ 10 uM": 9}
{"smiles": "CC(C)Sc1nc(N)c2c3c(sc2n1)COC(C)(C)C3", "% Inhibition @ 10 uM": 6.56}
{"smiles": "C[C@@H](C[C@H](NC(=O)c1ccc(-c2ccccc2Cl)nc1)C(=O)NC1(C#N)CCOCC1)c1ccccc1", "% Inhibition @ 10 uM": 1.61}
{"smiles": "COc1ccc(-c2csc(/C(C#N)=C\\Nc3ccccc3Cl)n2)cc1", "% Inhibition @ 10 uM": 4.39}
{"smiles": "COc1ccc(CCNc2nc(SCC(=O)c3ccc(O)c(O)c3)nc3ccccc23)cc1OC", "% Inhibition @ 10 uM": 4.96}
{"smiles": "COc1cccc(-c2coc3c2c(C)cc2oc(=O)cc(C)c23)c1", "% Inhibition @ 10 uM": 2.21}
{"smiles": "Clc1ccccc1C1CC(c2cccs2)Nc2ncnn21", "note": "(stereo not drawn)", "% Inhibition @ 10 uM": 6.17}
{"smiles": "CCOc1ccc(NC(=O)COc2ccccc2C)cc1", "% Inhibition @ 10 uM": 2.64}
{"smiles": "CCC1C(=O)NC(=O)N1c1ccccc1", "note": "(stereo not drawn)", "% Inhibition @ 10 uM": -3.92}
{"smiles": "Cc1c(NC(=O)c2cc3ccccc3cc2O)cccc1NC(=O)c1cc2ccccc2cc1O", "% Inhibition @ 10 uM": -0.261}
{"smiles": "COc1ccc(C(=O)N(CCN(C)C)c2nc3c(Cl)cccc3s2)cc1OC", "% Inhibition @ 10 uM": 0.434}
{"smiles": "CCc1nn(CC(=O)O)c(=O)c2cc3cc(F)ccc3n12", "% Inhibition @ 10 uM": 23.1}
{"smiles": "O=C(CNC(=S)N(Cc1ccccc1)Cc1ccccc1F)NCC1CCCO1", "note": "(stereo not drawn)", "% Inhibition @ 10 uM": 1.27}
{"smiles": "CCn1c2ccccc2c2cc(CN3CCSCC3)ccc21", "% Inhibition @ 10 uM": 2.47}
{"smiles": "Oc1cc(-c2ccccc2)nc2cc(-c3ccccc3)nn12", "% Inhibition @ 10 uM": -4.32}
{"smiles": "CC(C)OCCCNC(=O)CN1C(=O)CSc2ncccc21", "% Inhibition @ 10 uM": -4.15}
{"smiles": "COc1cccc(NC(=O)C2c3ccccc3Oc3ccccc32)c1", "% Inhibition @ 10 uM": 4.32}
{"smiles": "COc1ccccc1CC(=N)NOC(=O)Cc1ccc(Cl)cc1", "% Inhibition @ 10 uM": -5.08}
{"smiles": "O=C(CCc1ccccc1)Nc1cccc(F)c1", "% Inhibition @ 10 uM": -1.29}
{"smiles": "CC(C)Oc1ccc(NC(=O)c2ccc([N+](=O)[O-])cc2)cc1", "% Inhibition @ 10 uM": 0.00178}
{"smiles": "Cc1nn(Cc2ccc(C(=O)NCc3ccccc3)o2)c(C)c1Cl", "% Inhibition @ 10 uM": -0.725}
{"smiles": "Cc1cc(O)c(C2=NCCSC(c3cccc(Br)c3)C2)c(=O)o1", "note": "(stereo not drawn)", "% Inhibition @ 10 uM": 1.45}
{"smiles": "Cc1ccccc1S(=O)(=O)NC(=O)NC1CCCCC1", "% Inhibition @ 10 uM": -2.77}
{"smiles": "O=C(CSc1nnc(CNC(=O)c2cccs2)o1)c1ccccc1", "% Inhibition @ 10 uM": -3.39}
{"smiles": "CCS(=O)(=O)N1CCC2(CC1)OC(=O)C(C)=C2C(=O)NCCC(C)C", "% Inhibition @ 10 uM": 2.39}
{"smiles": "COc1ccc(CCN2C(=O)c3cccc4cccc(c34)C2=O)cc1OC", "% Inhibition @ 10 uM": 5.46}
{"smiles": "COCCCNC(=O)C1CCCN(Cc2cnn(-c3ccccc3)c2-n2cccc2)C1", "note": "(stereo not drawn)", "% Inhibition @ 10 uM": 5.42}
{"smiles": "Cc1ccccc1C(=O)c1cccn1CC(=O)NC(C)C", "% Inhibition @ 10 uM": -2.25}
{"smiles": "Cc1ccc(NCc2nc3ccccc3n2C)cc1", "% Inhibition @ 10 uM": -1.66}
{"smiles": "Cc1nnc(SCC#CCOC(=O)c2ccc(Br)cc2)s1", "% Inhibition @ 10 uM": -1.33}
{"smiles": "Cc1ccc(CS(=O)(=O)Cc2ccc(C(=O)NCCCN3CC(C)CC(C)C3)o2)cc1", "note": "(stereo not drawn)", "% Inhibition @ 10 uM": 3.59}
{"smiles": "COc1ccccc1NC(=O)C1=C(C)N=C2CCCC(O)=C2C1c1cccc(OC)c1OC", "note": "(stereo not drawn)", "% Inhibition @ 10 uM": 0.726}
{"smiles": "NC(=O)C1CCN(Cc2ccccc2F)CC1", "% Inhibition @ 10 uM": 0.0792}
{"smiles": "Cc1ccc(SCC(=O)Nc2ccc(C)cc2C)cc1", "% Inhibition @ 10 uM": -6.38}
{"smiles": "O=C1CCCc2c1nc(-c1cccc(F)c1)n2O", "% Inhibition @ 10 uM": 0.215}
{"smiles": "O=C(NC1CCCC1)NS(=O)(=O)c1ccccc1Cl", "% Inhibition @ 10 uM": -4.61}
{"smiles": "O=c1cc(NCCc2ccccc2)c2ccccc2o1", "% Inhibition @ 10 uM": -5.4}
{"smiles": "CN(c1ccc(C(=O)N2CCC(Cc3ccccc3)CC2)cc1)S(C)(=O)=O", "% Inhibition @ 10 uM": -0.95}
{"smiles": "O=C(Nc1ccc(CN2CCOCC2)cc1)c1cc(Cl)ccc1Cl", "% Inhibition @ 10 uM": -2.37}
{"smiles": "CC(C)N(Cc1nc(-c2ccc(Cl)cc2)no1)C(=O)C1CCCCC1", "% Inhibition @ 10 uM": -0.646}
{"smiles": "CSC1=C(C#N)C(C)C2=C(O)CC(C)(C)CC2=N1", "note": "(stereo not drawn)", "% Inhibition @ 10 uM": 2.76}
{"smiles": "CC1CCN(S(=O)(=O)c2ccc(NC(=O)CCCc3ccccc3)cc2)CC1", "% Inhibition @ 10 uM": -2.45}
{"smiles": "COc1ccc(-c2ccc3c(N)c(C(=O)Nc4cc(OC)c(OC)c(OC)c4)sc3n2)cc1", "% Inhibition @ 10 uM": 5.03}
